Measurements reported in PubChem BioAssay AID360 (National Center for Advancing Translational Sciences (NCATS), 2006).
Screen size: about 48,000 compounds; about 550 (1.1%) were called active. Roughly 4% stayed inconclusive and do not appear here. Rule as the data show it: active = potency below about 15 µM; inconclusive = mostly about 16 µM to 33 µM; inactive = weaker than that. The list shows a part of the results.

biological target: Lysosomal acid glucosylceramidase (Homo sapiens) (UniProt P04062); assay: Glucocerebrosidase; details: purified enzyme, resorufin glucoside fluorescence (screen aimed at inhibitors), 20 min;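 also: the screen sought inhibitors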
Sequence of UniProt P04062 (P04062 whole entry, looked up): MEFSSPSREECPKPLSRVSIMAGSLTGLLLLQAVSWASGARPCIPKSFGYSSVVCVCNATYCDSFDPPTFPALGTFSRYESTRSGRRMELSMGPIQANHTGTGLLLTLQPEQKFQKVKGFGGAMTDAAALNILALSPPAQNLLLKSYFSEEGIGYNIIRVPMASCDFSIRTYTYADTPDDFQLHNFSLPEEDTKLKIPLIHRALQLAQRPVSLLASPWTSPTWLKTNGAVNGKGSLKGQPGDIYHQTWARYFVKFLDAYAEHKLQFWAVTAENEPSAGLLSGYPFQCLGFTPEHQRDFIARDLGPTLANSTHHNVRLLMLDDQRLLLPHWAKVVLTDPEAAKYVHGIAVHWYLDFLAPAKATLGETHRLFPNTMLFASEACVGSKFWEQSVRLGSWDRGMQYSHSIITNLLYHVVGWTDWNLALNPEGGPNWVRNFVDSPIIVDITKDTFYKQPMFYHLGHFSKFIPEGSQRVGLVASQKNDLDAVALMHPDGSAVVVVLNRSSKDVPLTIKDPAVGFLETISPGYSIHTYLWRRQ
Outline: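 Compounds titrated against 0.2 nM normal enzyme, 30 uM resorufin beta-D-glucopyranoside substrate, citrate/phosphate buffer with taurocholate and tween-20, pH 5.9. Reaction ran 20 min at room temperature; fluorescence (Ex 548/Em 600) gave AC50.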
Potency is read from the fitted curve at half-maximal effect.

SMILES	Potency
Nc1cc(C(=O)O)ccc1N1CCCCCC1	inactive: > 76.9 µM
O=C(CS(=O)(=O)Cc1ccccc1)N1CCN(Cc2ccc3c(c2)OCO3)CC1	inactive: > 76.9 µM
Cc1ccc(Cn2ccc(NC(=O)C3C4CCC(C4)C3C(=O)O)n2)cc1 (configuration not stated)	inactive: > 76.9 µM
COc1cccc(-c2noc(CCC(=O)Nc3cccnc3)n2)c1	inactive: > 76.9 µM
CCCC(=O)Nc1ccc(C(=O)n2nnc3ccccc32)cc1	inactive: > 76.9 µM
Cc1nnc(SCCn2c(N3CC(C)CC(C)C3)nc3c2c(=O)[nH]c(=O)n3C)s1 (configuration not stated)	inactive: > 76.9 µM
CN1C(=O)c2ccc(NC(=O)c3c(F)c(F)c(F)c(F)c3F)cc2C1=O	inactive: > 76.9 µM
Cc1cc(N2CCN(c3ccccc3)CC2)nc(-n2nc(C)cc2C)n1	inactive
COc1ccccc1N1CCSC1C(N)=O (configuration not stated)	inactive: > 76.9 µM
CCCC(=O)NCCc1cc2cc(C)c(C)cc2[nH]c1=O	inactive: > 76.9 µM
COc1ccc(OC(C)C(=O)NCc2cccnc2)cc1 (configuration not stated)	inactive: > 76.9 µM
COc1ccc(C(=O)COC(=O)CCn2nnc(-c3cccc(O)c3OC)n2)cc1	inactive: > 76.9 µM
CCOC(=O)C(Cc1c[nH]c2ccccc12)NC(=O)c1ccco1 (configuration not stated)	inactive: > 76.9 µM
CC/C(=C1/C(=O)CC(C)(C)C(C(=O)OC)C1=O)N1CCCC1 (configuration not stated)	inactive: > 76.9 µM
COc1cc(OC)cc(C(=O)NCC(=O)N2CCC(C)CC2)c1	inactive: > 76.9 µM
CS(=O)(=O)N1CCN(c2ccccc2NC(=O)c2ccc(-c3ccc(Cl)cc3Cl)o2)CC1	inactive: > 76.9 µM
Cc1cc(NS(=O)(=O)c2ccc(NC(=O)C(C)N3C(=O)c4ccccc4C3=O)cc2)nc(C)n1 (configuration not stated)	inactive: > 76.9 µM
CCNc1oc(COc2cccc(C)c2)nc1C#N	inactive: > 76.9 µM
COc1ccc(OC)c2sc(N3CCN(c4ccccc4)CC3)nc12	inactive: > 76.9 µM
COC(=O)c1ccccc1NC(=O)CC(NCc1ccccc1)C(=O)O (configuration not stated)	inactive: > 76.9 µM
C=CCNC(=O)C1CCN(S(=O)(=O)CC)CC1	inactive: > 76.9 µM
O=C1c2ccccc2NC2(CCCCC2)N1c1ccc(O)cc1	inactive: > 76.9 µM
Cc1nc2ncnn2c(C)c1CCC(=O)N1CCOCC1	inactive: > 76.9 µM

SMILES	Potency
CN(C(=O)c1c(Cl)nc2sccn12)C1CCCCC1	inactive: > 76.9 µM
CCn1nnc(NC(=O)c2cc3ccccc3o2)n1	inactive: > 76.9 µM
O=C(c1cccc(-c2nnc(-c3ccccc3)o2)c1)N1CCCCC1	inactive: > 76.9 µM
OC(COCc1cccs1)CN1CCN(c2ccccn2)CC1 (configuration not stated)	inactive: > 76.9 µM
Cc1ccc(SCCC(=O)NCc2ccco2)cc1	inactive: > 76.9 µM
COCCNC(=O)CCCn1c(=O)c2ccccc2n(CC(=O)NCCC2=CCCCC2)c1=O	inactive: > 76.9 µM
C=CCn1c(COc2ccccc2)nnc1SCC(=O)O	inactive: > 76.9 µM
COCCn1c(C)cc(C(=O)COC(=O)c2ccc(-n3nc(C)cc3C)cc2)c1C	inactive: > 76.9 µM
CC(C)CN(C(=O)COC(=O)Cc1c[nH]c2ccccc12)C1CCS(=O)(=O)C1 (configuration not stated)	inactive: > 76.9 µM
Cc1cc(N(CN2CCCC2=O)C(=O)c2ccccc2)no1	inactive: > 76.9 µM
Cn1c(N2CCCCC2)nc2c1c(=O)n(Cc1cccc(Br)c1)c(=O)n2C	inactive: > 76.9 µM
N#Cc1ccccc1NC(=O)COC(=O)c1ccc2c(c1)OCCO2	inactive: > 76.9 µM
O=c1c2nnn(Cc3ccccc3)c2ncn1-c1ccccc1	inactive: > 76.9 µM
Cc1ccc(C2CC(c3ccccc3OC(F)F)Nc3ncnn32)cc1 (configuration not stated)	inactive: > 76.9 µM
O=C(CCCC1=NS(=O)(=O)c2ccccc2N1)N1CCN(c2ccccc2)CC1	inactive: > 76.9 µM
COC(=O)C(C)n1cnc2c(nnn2-c2ccc(OC)cc2)c1=O (configuration not stated)	inactive: > 76.9 µM
CCNC(=O)c1ccccc1NC(=O)c1cccc(S(=O)(=O)N2CCC(C)CC2)c1	inactive: > 76.9 µM
CC1CCN(S(=O)(=O)c2cccc(C(=O)N(C)C3CCS(=O)(=O)C3)c2)CC1 (configuration not stated)	inactive: > 76.9 µM
CN(c1ccccc1)S(=O)(=O)c1ccc(C(=O)OCC(=O)N2CCOCC2)cc1	inactive: > 76.9 µM
Cc1ccc(NC(=O)c2cc(S(=O)(=O)N3CCOCC3)ccc2F)c(C)c1	inactive: > 76.9 µM
COc1ccccc1NC(=O)c1ccccc1NS(C)(=O)=O	inactive: > 76.9 µM
CCC(C(=O)N1CCc2cc(OC)c(OC)cc2C1)c1ccccc1 (configuration not stated)	inactive: > 76.9 µM
Cc1ccc(C(=O)N2CCCC2)cc1S(=O)(=O)Nc1ccccc1	inactive: > 76.9 µM

SMILES	Potency
Cc1cc(C)n(-c2nc3c(c(=O)[nH]c(=O)n3C)n2Cc2ccc(F)cc2)n1	inactive: > 76.9 µM
CC(=O)Nc1ccc(C(=O)NC2CCCC2)cc1	inactive: > 76.9 µM
COc1ccc(-n2c(Cc3cccn3C)nnc2SCC(=O)NCCc2ccccc2)cc1	inactive: > 76.9 µM
O=C(NC1C2CC3CC(C2)CC1C3)C1CC1 (configuration not stated)	inactive: > 76.9 µM
CN1C(=O)N(C)C2(CC1(C)C)CC(C)(C)N(C)C(=O)N2C	inactive: > 76.9 µM
CCOc1ccc(C(=O)NCc2cccs2)cc1	inactive: > 76.9 µM
Cn1c(SCC(=O)N2CCOCC2)nnc1-c1ccccc1	inactive: > 76.9 µM
CC(C(=O)Nc1ccccc1-c1ccccc1)N1CCOCC1 (configuration not stated)	inactive: > 76.9 µM
CCn1c(SCC(=O)N2CCCc3ccccc32)nc2ccccc2c1=O	inactive: > 76.9 µM
CC1(C)C(c2cccs2)=NC(c2ccccc2)N1O (configuration not stated)	inactive: > 76.9 µM
CSc1nc(-c2ccccc2)nc(N2CCCC2)c1C(C)=O	inactive: > 76.9 µM
CCOC(=O)COc1ccc(S(=O)(=O)NCc2cccnc2)cc1	inactive: > 76.9 µM
CCNC(=O)c1sc(-c2ccccc2)nc1C	inactive: > 76.9 µM
CCN(CC)C(=O)c1sc2nc(-c3ccccn3)[nH]c(=O)c2c1C	inactive: > 76.9 µM
COc1cc(NC(=O)c2ccco2)c(OC)cc1NC(=O)CCC(=O)Nc1cc(C)ccc1C	inactive: > 76.9 µM
CCCCCCC(=O)NCC(=O)OCC(=O)c1ccccc1	inactive: > 76.9 µM
NC(=O)c1ccc(OCC(F)(F)C(F)(F)C(F)(F)C(F)(F)C(F)(F)C(F)F)cc1	inactive
O=C(CSc1nnc2n(C3CCCC3)c(=O)c3ccccc3n12)N1CCCCCC1	inactive: > 76.9 µM
O=C(NCc1ccccn1)c1ccc(N2CCCC2=O)cc1	inactive: > 76.9 µM
C=CCNC(=O)C(C)N1C(=O)c2ccccc2C1=O (configuration not stated)	inactive: > 76.9 µM
O=C(Nc1nc2c(s1)CCCC2)Oc1ccccc1	inactive: > 76.9 µM
Cc1ccc(S(=O)(=O)Nc2ccc(S(=O)(=O)Nc3ncccn3)cc2)cc1	inactive: > 76.9 µM
CCOC(=O)c1ccc(N2C(=O)CC(NC3CCN(C(=O)c4ccc(F)cc4)CC3)C2=O)cc1 (configuration not stated)	inactive: > 76.9 µM

SMILES	Potency
CCOc1ccc(C2=Nn3cnnc3SC2)cc1	inactive: > 76.9 µM
Cc1sc2ncnc(N[C@@H](CCC(=O)O)C(=O)O)c2c1C	inactive: > 76.9 µM
CCN(CC)CCN1C(=O)Cn2c(C)c(C)c3cccc1c32	inactive: > 76.9 µM
OCC12COC(c3ccccc3)N1C(c1ccccc1)OC2 (configuration not stated)	inactive: > 76.9 µM
COCCn1c(C)cc(C(=O)CSc2nnc3scc(-c4ccc(Cl)cc4)n23)c1C	inactive: > 76.9 µM
COc1ccccc1CNC(=O)C1CCN(S(C)(=O)=O)CC1	inactive: > 76.9 µM
CCN(CC)S(=O)(=O)c1cc(C(=O)Nc2ccccc2C(=O)O)ccc1OC	inactive: > 76.9 µM
COCCOc1ccc(C(F)(F)F)cc1Nc1nc2ccccc2o1	inactive
CCn1cc(C(=O)O)c(=O)c2cc(S(=O)(=O)N(C)C)ccc21	inactive: > 76.9 µM
CN(CC(=O)NCc1ccc2c(c1)OCO2)S(=O)(=O)c1ccc(Br)s1	inactive: > 76.9 µM
c1ccc(-c2oc3ncnc(NCCN4CCOCC4)c3c2-c2ccccc2)cc1	active: 13.3 µM
COc1ccc2c(-c3ccccc3)cc3nnnn3c2c1	inactive: > 76.9 µM
CCCCc1cc(=O)oc2cc(C)cc(OCc3nn[nH]n3)c12	inactive: > 76.9 µM
CCOc1cc(C2C(C#N)=C(N)OC3CCCC(=O)C32)ccc1OCCN1CCOCC1 (configuration not stated)	inactive: > 76.9 µM
CC(=O)OCN(C#N)c1nc(N(C)C)nc(N(C)C)n1	inactive: > 76.9 µM
CCN1/C(=C/C(=O)c2ccco2)Sc2ccccc21	inactive: > 76.9 µM
c1ccc2[nH]c(SCc3ccc(-c4nnco4)cc3)nc2c1	inactive: > 76.9 µM
CC(C)CCn1c(CN(C)Cc2ccccc2)nc2c1c(=O)n(C)c(=O)n2C	inactive: > 76.9 µM
CCOc1cc(C2NC(=O)N(C)C(C)=C2C(=O)OC)cc(Br)c1O (configuration not stated)	inactive: > 76.9 µM
CCC(=O)N1CCc2cc(S(=O)(=O)NC(Cc3ccccc3)C(=O)NC3CCCC3)ccc21 (configuration not stated)	inactive: > 76.9 µM
O=C(Nc1ccccc1N1CCCC1)c1cccnc1	inactive: > 76.9 µM
O=C(CCCOc1ccc(Cl)cc1Cl)NCCCO	inactive: > 76.9 µM
O=C(Nc1ccc(-c2nc3ccccc3[nH]2)cc1)C1CCCO1 (configuration not stated)	inactive
